Experimental data: PubChem BioAssay AID504832 (National Center for Advancing Translational Sciences (NCATS), 2011)
About 18,000 (5.8%) of roughly 310,000 compounds were called active. The inconclusive results got no clear call from the source; some entries with a clear call stand among them for comparison. Calls follow the shape of the dose curve; as a rule, active = well fitted inhibition curve with a large enough effect; inconclusive = small, poorly fitted or top-dose-only effect, or another doubt; inactive = no such curve, though single readings can be large or run the other way. Potencies of inconclusive entries are left out as doubtful fits.

assay: Primary qHTS for delayed death inhibitors of the malarial parasite plastid, 48 hour incubation; conditions: P. falciparum luciferase growth in erythrocytes; series mostly up to 28.7 µM
Summary of the method: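 Compounds are pin-transferred into medium, infected erythrocytes (2% hematocrit, 0.1% parasitemia final) are added, and plates sit one parasite generation at 37 C in 5% CO2. Detection reagent is then added and luminescence measured.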
Potency is read from the fitted curve at half-maximal effect; tags tell the direction and shape of the fitted curve.

**Q.** For `N=C1/C(=C\c2ccc(Br)o2)C(=O)N=C2SC(CC(=O)N3CCCCC3)=NN12`, which Potency is on record?
**A.** Its Potency is “inactive”.

**Q.** Which Potency does the source give for `CCOc1ccc(CN2CCNC(=O)C2CC(=O)NCc2csc(C(C)C)n2)cc1` (centres undefined) here?
**A.** Its Potency is inconclusive [inhibitor, single point].

**Q.** Which Potency does the source give for `CCOC(=O)c1c(C)[nH]c(C(=O)OCC(=O)Nc2ccc(OC)c(Cl)c2)c1C` here?
**A.** The Potency was inconclusive [inhibitor, partial curve, poor fit].

**Q.** Which Potency does the source give for `O=C(CCn1cnc2ccccc21)N/N=C/C=C/c1ccccc1` here?
**A.** The Potency was inconclusive [inhibitor, partial curve, poor fit].

**Q.** For `c1ccc(CNCc2ccco2)cc1`, which Potency is on record?
**A.** Its Potency is “inactive”.

**Q.** Which Potency does the source give for `C#CCOCCOCCOCCNc1nc(N2CCN(C(=O)[C@H]([C@@H](C)CC)n3cc([C@@H](N)CO)nn3)CC2)nc(N2CCN(C(=O)[C@H](Cc3cc4ccccc4[nH]3)n3cc([C@@H](N)Cc4ccc(O)cc4)nn3)CC2)n1` here?
**A.** The Potency was “inactive”.

**Q.** With `Cc1ccc(C(=O)NCC(=O)OCC(=O)NC(C)C2CC3CCC2C3)cc1` (centres undefined) as the compound, how does the Potency read?
**A.** The Potency was “inactive”.

**Q.** Which Potency does the source give for `CCN(CC)C(=O)Cn1cc(S(=O)(=O)CC(=O)NCc2ccccc2)c2ccccc21` here?
**A.** Its Potency is “inactive”.

**Q.** Which Potency does the source give for `CCC1=C(OC(=O)N(CC)CC)N2C(=O)OC(=NCC3CC3)[C@]2(C)[C@H]2C1=CC[C@H]1C(=O)N(CC)C(=O)[C@H]12` here?
**A.** Its Potency is active: 10.4 µM.

**Q.** For `Cc1c(O)c(CN2CCCCC2)cc2c3c(c(=O)oc12)CCC3`, which Potency is on record?
**A.** Its Potency is active: 10.4 µM.

**Q.** Which Potency does the source give for `Cc1c(C#N)c(N)nc2c3c(sc12)NC(=O)CC3c1ccccc1` (centres undefined) here?
**A.** Its Potency is “inactive”.

**Q.** For `CCC(=O)NC(=S)Nc1ccc(NC(=O)c2ccc(C)c([N+](=O)[O-])c2)cc1`, which Potency is on record?
**A.** The Potency was “inactive”.

**Q.** With `CN1C(=O)CC(Sc2ncccc2C(=O)O)C1=O` (centres undefined) as the compound, how does the Potency read?
**A.** The Potency was inconclusive [inhibitor, single point].

**Q.** Which Potency does the source give for `COc1ccc(C(=O)CCS(=O)(=O)c2ccc(C)cc2)cc1` here?
**A.** The Potency was “inactive”.

**Q.** With `O=C(NCCCN1CCN(c2cccc(Cl)c2)CC1)c1cccc(N2CCCC2=O)c1` as the compound, how does the Potency read?
**A.** The Potency was inconclusive [inhibitor, single point].

**Q.** With `CC(C)Oc1ccc(C(=O)N2CCN(C(=O)c3ccco3)CC2)cc1` as the compound, how does the Potency read?
**A.** Its Potency is “inactive”.

**Q.** With `COc1ccc(/C=N/NC(=S)Nc2ccccc2)cc1COc1ccc(F)cc1` as the compound, how does the Potency read?
**A.** Its Potency is active: 10.4 µM.

**Q.** For `Cc1ccc(SCC(=O)OCc2csc(CC(=O)Nc3ccccc3C)n2)cc1C`, which Potency is on record?
**A.** Its Potency is inconclusive [inhibitor, single point].

**Q.** Which Potency does the source give for `Cc1ccc(C(=O)N/N=C/c2ccc(-c3ccccc3[N+](=O)[O-])o2)cn1` here?
**A.** The Potency was “inactive”.

**Q.** With `COc1cc2[nH]c(C(=O)N3CCN(c4ccc(F)cc4)CC3)cc2c(OC)c1OC` as the compound, how does the Potency read?
**A.** The Potency was inconclusive [inhibitor, partial curve].

**Q.** For `CCOC(=O)C1CCCCN1Cc1ccc(OC)c(OC)c1` (centres undefined), which Potency is on record?
**A.** The Potency was “inactive”.

**Q.** For `COc1ccc(Cn2cnc3c([N+](=O)[O-])c(C)c(C)cc32)cc1`, which Potency is on record?
**A.** Its Potency is inconclusive [inhibitor, full curve, poor fit].

**Q.** Which Potency does the source give for `CSc1c(CC(=O)Nc2ccccc2Cl)n(Cc2ccccc2)c2ccccc12` here?
**A.** The Potency was inconclusive [inhibitor, partial curve].

**Q.** With `CCC(C)c1ccc(N(C(=O)c2ccco2)C(C(=O)NC2CCCC2)c2cccnc2)cc1` (centres undefined) as the compound, how does the Potency read?
**A.** The Potency was active: 1.85 µM.

**Q.** For `CC(=O)N1CCN(S(=O)(=O)c2cccc(C(=O)Nc3cc(C(F)(F)F)ccc3N3CCOCC3)c2)CC1`, which Potency is on record?
**A.** Its Potency is inconclusive [inhibitor, single point].

**Q.** Which Potency does the source give for `COc1cc(NC(=S)NC(=O)CCc2ccccc2)cc(OC)c1` here?
**A.** Its Potency is inconclusive [inhibitor, partial curve, poor fit].

**Q.** Which Potency does the source give for `CCN(CC(=O)Nc1ccccc1C(F)(F)F)C(=O)C1CCN(C(=O)Nc2ccccc2)CC1` here?
**A.** Its Potency is active: 11.7 µM.

**Q.** With `COc1ccc(C(C)=O)cc1CSc1ccccn1` as the compound, how does the Potency read?
**A.** The Potency was inconclusive [inhibitor, single point].

**Q.** With `CCOc1ccc(N(CC(=O)Nc2ccccc2OC)S(=O)(=O)c2ccccc2)cc1` as the compound, how does the Potency read?
**A.** The Potency was inconclusive [inhibitor, single point].

**Q.** For `COc1ccc(NC(=O)CSc2ccc3c(c2)OCCO3)cc1OC`, which Potency is on record?
**A.** The Potency was “inactive”.

**Q.** With `Cc1cc2c(cc1C)C(c1ccccc1OC(C)C)CC(=O)N2` (centres undefined) as the compound, how does the Potency read?
**A.** Its Potency is inconclusive [inhibitor, partial curve, poor fit].

**Q.** Which Potency does the source give for `COc1ccc(CN2C(=O)CS/C2=N/N=C/c2cccs2)cc1` here?
**A.** The Potency was inconclusive [inhibitor, partial curve, poor fit].

**Q.** For `CC1(c2ccccc2Cl)NC(=O)N(CC(=O)Nc2ccc(N3CCCCC3)cc2)C1=O` (centres undefined), which Potency is on record?
**A.** Its Potency is inconclusive [inhibitor, single point].

**Q.** With `Cc1nc2nc(SCC(=O)N3CCOCC3)nn2c(C)c1Cc1c(F)cccc1Cl` as the compound, how does the Potency read?
**A.** The Potency was active: 3.7 µM.

**Q.** For `COc1ccc(-c2cc(C(=O)Nc3ccc(C)cc3)no2)cc1`, which Potency is on record?
**A.** Its Potency is “inactive”.

**Q.** With `CCC1Sc2ccc(S(=O)(=O)CCC(=O)Nc3ccc(NC(C)=O)cc3)cc2NC1=O` (centres undefined) as the compound, how does the Potency read?
**A.** The Potency was “inactive”.

**Q.** Which Potency does the source give for `COc1ccc(Br)cc1/C=N/Nc1cccc(C(=O)O)c1` here?
**A.** Its Potency is “inactive”.

**Q.** With `CC1(C)CC(=O)C(C=NCCN2CCN(CCCCS(=O)(=O)O)CC2)=C(O)C1` as the compound, how does the Potency read?
**A.** The Potency was inconclusive [inhibitor, partial curve, poor fit].

**Q.** Which Potency does the source give for `COc1ccc(NC(=S)N/N=C/c2cccn2Cc2ccccc2F)cc1` here?
**A.** The Potency was inconclusive [inhibitor, partial curve, poor fit].

**Q.** Which Potency does the source give for `CCN(CC(=O)Nc1ccc(C(=O)Nc2ccc(OC)cc2)cc1)Cc1nc2ccccc2c(=O)[nH]1` here?
**A.** Its Potency is inconclusive [inhibitor, full curve].

**Q.** For `COc1ccccc1C(=O)NCC1(c2ccccc2)CCCC1`, which Potency is on record?
**A.** The Potency was inconclusive [inhibitor, single point].

**Q.** Which Potency does the source give for `CN(Cc1ccccc1)C(=O)c1cc2cc(F)ccc2[nH]1` here?
**A.** Its Potency is inconclusive [inhibitor, single point].

**Q.** With `O=C(CNC(=O)c1ccccc1F)Nc1ccc2c(c1)CCC2` as the compound, how does the Potency read?
**A.** The Potency was “inactive”.

**Q.** Which Potency does the source give for `CN(C)CCCNC(=O)/C=C/c1ccc(OCc2c(F)cccc2Cl)cc1` here?
**A.** The Potency was inconclusive [inhibitor, partial curve, poor fit].

**Q.** With `O=[N+]([O-])c1ccc(C(O)CN2CCN(c3ccccc3)CC2)cc1` (centres undefined) as the compound, how does the Potency read?
**A.** The Potency was inconclusive [inhibitor, single point].

**Q.** For `Oc1ccc(Cl)cc1C1=NNC(c2cccs2)C1` (centres undefined), which Potency is on record?
**A.** The Potency was active: 3.29 µM.

**Q.** With `Cc1ccc(COC(=O)c2cc([N+](=O)[O-])ccc2N2CCOCC2)cc1` as the compound, how does the Potency read?
**A.** The Potency was inconclusive [inhibitor, single point].

**Q.** Which Potency does the source give for `O=C(NN1C(=O)C2C3c4ccccc4C(c4ccccc43)C2C1=O)c1ccc(Cl)cc1` (centres undefined) here?
**A.** The Potency was inconclusive [inhibitor, single point].

**Q.** For `C=CCn1c(C)nnc1SCC(=O)c1[nH]c(C)c(C(C)=O)c1C`, which Potency is on record?
**A.** The Potency was inconclusive [inhibitor, single point].

**Q.** With `Cc1ccc(-n2c(SCC(=O)Nc3ccc4cn[nH]c4c3)nnc2-c2ccco2)cc1` as the compound, how does the Potency read?
**A.** The Potency was inconclusive [inhibitor, partial curve, poor fit].

**Q.** Which Potency does the source give for `CC(NC(=O)CCC(=O)N1CCN(S(=O)(=O)c2ccc(Cl)cc2)CC1)c1ccccc1` (centres undefined) here?
**A.** Its Potency is inconclusive [inhibitor, single point].

**Q.** Which Potency does the source give for `COc1ccc(NC(=O)CSc2nc(O)cc(=O)[nH]2)c(OC)c1` here?
**A.** The Potency was “inactive”.

**Q.** Which Potency does the source give for `N#Cc1ccc(C(=O)Nc2nnc(-c3ccco3)o2)cc1` here?
**A.** Its Potency is inconclusive [inhibitor, full curve, poor fit].

**Q.** For `O=C(Nc1ccc(Cl)c(S(=O)(=O)N2CCOCC2)c1)[C@@H]1CCCN1C(=O)c1cccs1`, which Potency is on record?
**A.** Its Potency is inconclusive [inhibitor, partial curve].

**Q.** Which Potency does the source give for `CCCn1nc(C(=O)NNC(=O)c2cccc(S(=O)(=O)NC(C)C)c2)c2ccccc2c1=O` here?
**A.** Its Potency is active: 3.29 µM.

**Q.** With `Cc1cccc(N2C(=O)CCC2=O)c1` as the compound, how does the Potency read?
**A.** Its Potency is inconclusive [inhibitor, single point].

**Q.** With `Fc1cccc(CCN2CCN=C2Nc2ccccc2)c1` as the compound, how does the Potency read?
**A.** Its Potency is inconclusive [inhibitor, single point].

**Q.** For `CNC(=O)c1ccc(-c2ccccc2)s1`, which Potency is on record?
**A.** The Potency was “inactive”.

**Q.** For `Cc1ccc(NC(=O)C2CCCN(S(=O)(=O)c3cccnc3)C2)c(C)c1` (centres undefined), which Potency is on record?
**A.** Its Potency is inconclusive [inhibitor, partial curve, poor fit].

**Q.** For `CCOC(=O)c1ccc(NC(=O)CSc2ccc(-c3cccnc3)nn2)cc1`, which Potency is on record?
**A.** The Potency was “inactive”.

**Q.** With `CCCCSc1nnc(-c2ccc(C)cc2)c2ccccc12` as the compound, how does the Potency read?
**A.** Its Potency is inconclusive [inhibitor, partial curve, poor fit].

**Q.** For `CC(C)NS(=O)(=O)c1ccc(OCC(=O)N2CCN(c3ccccc3)CC2)cc1`, which Potency is on record?
**A.** The Potency was “inactive”.

**Q.** For `Cc1ccc2c(c1)nnn2C1CCN(S(=O)(=O)c2ccc(C(=O)NC3CCCC3)cc2)CC1`, which Potency is on record?
**A.** Its Potency is inconclusive [inhibitor, full curve, poor fit].

**Q.** For `CCCCNC(=O)C1CCN(C(=O)C2CCN(S(=O)(=O)c3ccc(C)cc3)CC2)CC1`, which Potency is on record?
**A.** Its Potency is inconclusive [inhibitor, partial curve].

**Q.** Which Potency does the source give for `COC(=O)c1cscc1S(=O)(=O)Cc1ccccc1` here?
**A.** Its Potency is “inactive”.

**Q.** Which Potency does the source give for `COc1ccc(Cl)cc1NC(=O)C(C)OC(=O)c1ccc(NS(=O)(=O)c2ccc3[nH]c(=O)[nH]c3c2)cc1` (centres undefined) here?
**A.** Its Potency is “inactive”.

**Q.** For `CC1CN(C2=NC(=O)/C(=C3/C(=O)N(Cc4ccc(F)cc4)c4ccccc43)S2)CC(C)O1` (centres undefined), which Potency is on record?
**A.** The Potency was inconclusive [inhibitor, single point].

**Q.** Which Potency does the source give for `CCn1c(Cc2cccs2)nnc1SCC(=O)NC1CC1` here?
**A.** Its Potency is inconclusive [inhibitor, partial curve, poor fit].

**Q.** Which Potency does the source give for `COC(=O)c1ccc(CNC(=O)COC(=O)CC23CC4CC(CC(Br)(C4)C2)C3)cc1` here?
**A.** The Potency was inconclusive [inhibitor, single point].
